Source: publication PMC12487865
These are yes or no findings as the source states them, for the method shown. In cells and extracts the contact can be indirect. Some entries that bind do so weakly or less than the wild type. For part of these data: Where a sequence is shown, tags or fusion partners need not be part of it.

Chains of the proteins cited; added tags and fusions are not shown. Residues count along the entry.
UniProt P05622, residues 32-1098: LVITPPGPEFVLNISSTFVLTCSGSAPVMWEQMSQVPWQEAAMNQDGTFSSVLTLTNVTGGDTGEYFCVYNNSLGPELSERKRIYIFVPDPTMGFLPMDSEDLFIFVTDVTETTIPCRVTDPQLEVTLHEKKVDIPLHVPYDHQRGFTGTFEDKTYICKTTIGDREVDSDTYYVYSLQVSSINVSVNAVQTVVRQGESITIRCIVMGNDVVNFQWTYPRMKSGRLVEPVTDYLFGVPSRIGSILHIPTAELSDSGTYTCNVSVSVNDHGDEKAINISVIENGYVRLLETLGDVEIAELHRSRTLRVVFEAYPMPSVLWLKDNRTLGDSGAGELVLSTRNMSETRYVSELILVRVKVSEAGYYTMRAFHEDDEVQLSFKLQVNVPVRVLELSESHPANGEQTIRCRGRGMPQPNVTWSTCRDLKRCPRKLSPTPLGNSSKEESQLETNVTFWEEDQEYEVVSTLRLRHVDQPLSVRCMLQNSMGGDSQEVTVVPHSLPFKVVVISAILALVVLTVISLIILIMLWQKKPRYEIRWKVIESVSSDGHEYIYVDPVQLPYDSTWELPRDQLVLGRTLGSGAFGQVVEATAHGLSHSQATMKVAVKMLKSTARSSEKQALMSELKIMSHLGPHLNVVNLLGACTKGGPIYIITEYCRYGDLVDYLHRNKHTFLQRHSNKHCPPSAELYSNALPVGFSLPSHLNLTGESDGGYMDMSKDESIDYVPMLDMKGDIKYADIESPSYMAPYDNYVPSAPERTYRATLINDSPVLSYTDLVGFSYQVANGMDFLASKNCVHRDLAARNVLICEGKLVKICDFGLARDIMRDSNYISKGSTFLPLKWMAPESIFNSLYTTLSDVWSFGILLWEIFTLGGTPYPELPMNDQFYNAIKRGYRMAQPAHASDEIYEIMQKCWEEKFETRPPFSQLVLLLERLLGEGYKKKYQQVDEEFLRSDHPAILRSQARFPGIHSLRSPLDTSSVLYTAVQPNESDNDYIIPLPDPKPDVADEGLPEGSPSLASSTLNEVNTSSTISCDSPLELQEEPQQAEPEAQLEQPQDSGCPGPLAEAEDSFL
UniProt Q61851, residues 21-801: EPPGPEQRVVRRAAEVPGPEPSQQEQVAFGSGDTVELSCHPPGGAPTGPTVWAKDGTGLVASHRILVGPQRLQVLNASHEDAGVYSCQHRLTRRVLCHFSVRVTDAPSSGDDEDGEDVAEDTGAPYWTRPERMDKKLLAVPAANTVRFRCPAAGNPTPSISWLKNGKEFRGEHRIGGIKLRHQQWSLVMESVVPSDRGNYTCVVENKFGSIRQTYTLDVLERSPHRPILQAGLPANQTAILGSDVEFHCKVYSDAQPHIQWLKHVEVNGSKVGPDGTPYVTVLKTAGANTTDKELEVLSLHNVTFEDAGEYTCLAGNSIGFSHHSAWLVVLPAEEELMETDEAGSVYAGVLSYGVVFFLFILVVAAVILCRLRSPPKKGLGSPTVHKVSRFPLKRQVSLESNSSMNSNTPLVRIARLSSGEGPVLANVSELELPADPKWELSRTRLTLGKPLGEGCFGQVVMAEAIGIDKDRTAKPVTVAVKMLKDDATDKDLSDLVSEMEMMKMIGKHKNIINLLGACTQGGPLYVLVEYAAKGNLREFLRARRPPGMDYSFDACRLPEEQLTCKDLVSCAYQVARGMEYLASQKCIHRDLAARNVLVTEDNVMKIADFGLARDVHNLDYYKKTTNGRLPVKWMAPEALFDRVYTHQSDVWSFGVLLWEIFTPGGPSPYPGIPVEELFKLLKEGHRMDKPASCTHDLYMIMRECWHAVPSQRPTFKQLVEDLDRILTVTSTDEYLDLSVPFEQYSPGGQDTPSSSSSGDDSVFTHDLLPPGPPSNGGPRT
UniProt P26618, residues 25-1089: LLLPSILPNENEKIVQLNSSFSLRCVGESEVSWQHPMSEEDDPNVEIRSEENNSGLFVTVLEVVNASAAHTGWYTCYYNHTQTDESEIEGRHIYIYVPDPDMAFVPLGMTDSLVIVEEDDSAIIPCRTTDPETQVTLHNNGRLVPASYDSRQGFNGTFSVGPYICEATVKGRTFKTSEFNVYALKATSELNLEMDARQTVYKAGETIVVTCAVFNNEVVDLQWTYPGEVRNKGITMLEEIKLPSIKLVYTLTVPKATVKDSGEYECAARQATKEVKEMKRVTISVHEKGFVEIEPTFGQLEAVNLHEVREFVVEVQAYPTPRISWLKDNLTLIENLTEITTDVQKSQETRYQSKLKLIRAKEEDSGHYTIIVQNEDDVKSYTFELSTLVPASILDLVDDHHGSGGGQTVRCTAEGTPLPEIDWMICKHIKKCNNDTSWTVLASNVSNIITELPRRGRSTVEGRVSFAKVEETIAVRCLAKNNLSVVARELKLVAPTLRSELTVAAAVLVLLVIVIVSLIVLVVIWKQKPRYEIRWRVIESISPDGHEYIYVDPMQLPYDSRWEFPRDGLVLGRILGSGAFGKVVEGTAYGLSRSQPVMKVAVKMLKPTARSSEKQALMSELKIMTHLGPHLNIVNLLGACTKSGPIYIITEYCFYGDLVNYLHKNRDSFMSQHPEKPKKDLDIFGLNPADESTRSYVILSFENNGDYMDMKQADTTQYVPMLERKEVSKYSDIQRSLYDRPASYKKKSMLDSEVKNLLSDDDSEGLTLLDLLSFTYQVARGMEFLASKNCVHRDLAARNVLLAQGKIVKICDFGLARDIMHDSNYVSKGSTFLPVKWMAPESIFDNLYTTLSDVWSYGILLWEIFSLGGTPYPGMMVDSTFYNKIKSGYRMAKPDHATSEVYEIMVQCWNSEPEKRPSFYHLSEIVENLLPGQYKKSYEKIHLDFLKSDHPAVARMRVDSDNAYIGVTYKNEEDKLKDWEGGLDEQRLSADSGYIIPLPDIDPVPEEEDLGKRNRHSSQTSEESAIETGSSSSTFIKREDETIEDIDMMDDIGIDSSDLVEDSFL
UniProt P16092, residues 22-822: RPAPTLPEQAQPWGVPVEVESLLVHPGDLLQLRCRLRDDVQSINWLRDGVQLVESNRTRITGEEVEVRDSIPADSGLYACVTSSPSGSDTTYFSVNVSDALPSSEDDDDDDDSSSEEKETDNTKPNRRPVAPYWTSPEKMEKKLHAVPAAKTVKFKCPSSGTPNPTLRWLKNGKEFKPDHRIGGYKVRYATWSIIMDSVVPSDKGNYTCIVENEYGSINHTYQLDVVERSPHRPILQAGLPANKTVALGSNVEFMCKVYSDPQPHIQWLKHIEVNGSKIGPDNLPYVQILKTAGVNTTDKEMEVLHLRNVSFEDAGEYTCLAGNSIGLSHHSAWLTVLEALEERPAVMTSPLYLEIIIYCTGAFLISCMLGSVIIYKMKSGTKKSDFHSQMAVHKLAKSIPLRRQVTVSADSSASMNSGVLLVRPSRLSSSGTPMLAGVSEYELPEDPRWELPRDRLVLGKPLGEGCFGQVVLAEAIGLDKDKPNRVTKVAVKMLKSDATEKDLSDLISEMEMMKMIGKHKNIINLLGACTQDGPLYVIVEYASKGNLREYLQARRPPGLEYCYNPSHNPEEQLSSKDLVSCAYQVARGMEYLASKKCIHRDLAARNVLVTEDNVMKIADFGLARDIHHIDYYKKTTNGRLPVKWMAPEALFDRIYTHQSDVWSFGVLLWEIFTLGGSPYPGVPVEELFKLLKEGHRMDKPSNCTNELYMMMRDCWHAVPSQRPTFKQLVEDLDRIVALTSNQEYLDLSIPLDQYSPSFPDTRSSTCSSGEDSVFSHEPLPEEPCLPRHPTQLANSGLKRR
UniProt P21803, residues 22-821: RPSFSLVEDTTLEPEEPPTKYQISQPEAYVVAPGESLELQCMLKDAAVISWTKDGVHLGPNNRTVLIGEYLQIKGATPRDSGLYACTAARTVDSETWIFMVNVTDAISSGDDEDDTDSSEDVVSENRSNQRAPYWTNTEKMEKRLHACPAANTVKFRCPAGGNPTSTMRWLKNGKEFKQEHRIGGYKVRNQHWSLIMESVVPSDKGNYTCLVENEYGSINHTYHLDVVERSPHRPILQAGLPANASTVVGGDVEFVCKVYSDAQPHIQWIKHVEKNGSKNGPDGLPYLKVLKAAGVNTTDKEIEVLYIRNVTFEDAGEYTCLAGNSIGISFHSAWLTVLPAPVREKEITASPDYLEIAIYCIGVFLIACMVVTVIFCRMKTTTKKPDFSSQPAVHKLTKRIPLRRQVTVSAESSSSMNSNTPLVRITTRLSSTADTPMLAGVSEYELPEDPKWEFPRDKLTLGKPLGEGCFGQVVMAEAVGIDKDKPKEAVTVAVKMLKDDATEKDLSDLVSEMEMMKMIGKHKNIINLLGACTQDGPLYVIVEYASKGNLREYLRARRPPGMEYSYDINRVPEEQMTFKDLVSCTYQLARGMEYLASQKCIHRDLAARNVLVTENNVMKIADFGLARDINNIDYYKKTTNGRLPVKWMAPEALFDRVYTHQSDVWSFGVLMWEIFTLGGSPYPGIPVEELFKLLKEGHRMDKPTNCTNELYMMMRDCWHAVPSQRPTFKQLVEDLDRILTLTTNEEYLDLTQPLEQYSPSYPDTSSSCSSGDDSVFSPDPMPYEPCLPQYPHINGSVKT

Tests used:
[1] = biological target: T1, Nf2-Flag (neurofibromin 2, Merlin) (UniProt P46662); experiment: co-IP; HEK293T cells transfected with tagged plasmids (Flag, HA); lysate in co-IP buffer (25 mM Tris, 150 mM NaCl, 1% NP-40, 1 mM EDTA, 5% glycerol, pH 7.4); co-IP antibody or normal IgG overnight at 4°C, Dynabeads, Western blot
T1 sequence: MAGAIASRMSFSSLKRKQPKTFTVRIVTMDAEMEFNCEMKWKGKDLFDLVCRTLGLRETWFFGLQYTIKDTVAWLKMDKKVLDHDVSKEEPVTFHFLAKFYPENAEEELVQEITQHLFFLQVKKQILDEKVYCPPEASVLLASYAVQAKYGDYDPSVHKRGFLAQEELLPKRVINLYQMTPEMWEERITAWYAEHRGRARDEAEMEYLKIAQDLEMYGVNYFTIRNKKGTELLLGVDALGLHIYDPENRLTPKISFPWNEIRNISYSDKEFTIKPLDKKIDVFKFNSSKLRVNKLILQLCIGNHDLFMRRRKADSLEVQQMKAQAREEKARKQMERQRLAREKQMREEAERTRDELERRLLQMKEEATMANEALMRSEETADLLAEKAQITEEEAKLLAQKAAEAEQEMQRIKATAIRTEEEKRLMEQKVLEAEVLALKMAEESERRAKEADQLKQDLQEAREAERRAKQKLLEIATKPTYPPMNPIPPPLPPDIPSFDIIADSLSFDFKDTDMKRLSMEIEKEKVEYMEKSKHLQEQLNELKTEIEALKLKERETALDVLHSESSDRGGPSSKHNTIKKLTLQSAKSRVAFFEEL

[2] = biological target: T1, Nf2-Flag (neurofibromin 2, Merlin); experiment: co-IP; co-IP of FGFR1, Akt and Nf2 together (FGFR1 and Akt tested in the presence of Nf2); cells and constructs not told in the text (Supplemental Figure 3C)
Nf2 S10A-Flag = biological target: T2, Nf2 S10A-Flag (UniProt P46662); experiment: co-IP; HEK293T cells transfected with tagged plasmids (Flag, HA); lysate in co-IP buffer (25 mM Tris, 150 mM NaCl, 1% NP-40, 1 mM EDTA, 5% glycerol, pH 7.4); co-IP antibody or normal IgG overnight at 4°C, Dynabeads, Western blot
T2 sequence: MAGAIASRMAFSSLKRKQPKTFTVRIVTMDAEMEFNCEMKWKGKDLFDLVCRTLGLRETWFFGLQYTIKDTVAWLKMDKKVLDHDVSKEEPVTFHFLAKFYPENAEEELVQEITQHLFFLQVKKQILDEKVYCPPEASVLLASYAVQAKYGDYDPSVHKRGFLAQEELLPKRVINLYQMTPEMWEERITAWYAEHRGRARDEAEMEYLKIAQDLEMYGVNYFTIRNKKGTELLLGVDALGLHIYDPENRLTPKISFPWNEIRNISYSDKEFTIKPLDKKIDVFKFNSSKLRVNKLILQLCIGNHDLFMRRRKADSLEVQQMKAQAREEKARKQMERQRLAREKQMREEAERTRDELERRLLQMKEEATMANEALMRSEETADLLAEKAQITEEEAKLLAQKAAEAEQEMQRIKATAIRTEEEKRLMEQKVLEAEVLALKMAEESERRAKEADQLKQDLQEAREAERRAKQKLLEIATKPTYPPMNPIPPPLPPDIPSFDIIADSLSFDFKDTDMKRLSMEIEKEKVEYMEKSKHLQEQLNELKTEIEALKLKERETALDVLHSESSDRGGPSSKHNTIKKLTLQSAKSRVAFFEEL

Nf2 T230A-Flag = biological target: T3, Nf2 T230A-Flag (UniProt P46662); experiment: as above
T3 sequence: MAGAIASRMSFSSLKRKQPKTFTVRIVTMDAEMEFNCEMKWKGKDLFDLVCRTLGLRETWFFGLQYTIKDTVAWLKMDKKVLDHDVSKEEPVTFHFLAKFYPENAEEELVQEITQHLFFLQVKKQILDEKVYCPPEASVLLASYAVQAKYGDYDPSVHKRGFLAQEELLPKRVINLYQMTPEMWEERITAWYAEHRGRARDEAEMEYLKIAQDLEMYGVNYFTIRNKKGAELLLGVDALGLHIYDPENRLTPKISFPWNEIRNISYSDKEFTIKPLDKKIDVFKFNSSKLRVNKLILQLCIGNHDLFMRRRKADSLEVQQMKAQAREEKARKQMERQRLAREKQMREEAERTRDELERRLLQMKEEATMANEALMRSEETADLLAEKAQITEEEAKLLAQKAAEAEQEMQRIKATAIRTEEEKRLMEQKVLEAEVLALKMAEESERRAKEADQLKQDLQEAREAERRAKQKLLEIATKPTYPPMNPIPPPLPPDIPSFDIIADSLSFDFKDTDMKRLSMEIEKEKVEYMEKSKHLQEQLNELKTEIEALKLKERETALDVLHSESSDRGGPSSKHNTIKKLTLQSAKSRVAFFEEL

Nf2 S315A-Flag = biological target: T4, Nf2 S315A-Flag (UniProt P46662); experiment: as above
T4 sequence: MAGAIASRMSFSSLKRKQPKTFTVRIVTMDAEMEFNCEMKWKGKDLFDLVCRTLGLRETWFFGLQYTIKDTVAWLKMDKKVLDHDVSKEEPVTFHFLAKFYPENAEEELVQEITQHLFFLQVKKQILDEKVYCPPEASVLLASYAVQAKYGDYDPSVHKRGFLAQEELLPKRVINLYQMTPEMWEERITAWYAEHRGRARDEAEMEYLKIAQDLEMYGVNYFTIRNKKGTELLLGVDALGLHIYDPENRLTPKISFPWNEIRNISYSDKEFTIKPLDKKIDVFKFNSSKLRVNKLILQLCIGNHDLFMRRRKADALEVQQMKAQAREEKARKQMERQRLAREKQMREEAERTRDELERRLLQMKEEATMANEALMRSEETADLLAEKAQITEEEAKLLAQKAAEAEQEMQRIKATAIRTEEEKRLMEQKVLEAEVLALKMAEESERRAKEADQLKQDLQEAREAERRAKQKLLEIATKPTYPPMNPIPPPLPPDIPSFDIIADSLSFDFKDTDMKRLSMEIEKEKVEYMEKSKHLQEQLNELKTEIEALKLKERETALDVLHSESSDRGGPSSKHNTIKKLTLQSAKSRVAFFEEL

Nf2 S518A-Flag = biological target: T5, Nf2 S518A-Flag (UniProt P46662); experiment: as above
T5 sequence: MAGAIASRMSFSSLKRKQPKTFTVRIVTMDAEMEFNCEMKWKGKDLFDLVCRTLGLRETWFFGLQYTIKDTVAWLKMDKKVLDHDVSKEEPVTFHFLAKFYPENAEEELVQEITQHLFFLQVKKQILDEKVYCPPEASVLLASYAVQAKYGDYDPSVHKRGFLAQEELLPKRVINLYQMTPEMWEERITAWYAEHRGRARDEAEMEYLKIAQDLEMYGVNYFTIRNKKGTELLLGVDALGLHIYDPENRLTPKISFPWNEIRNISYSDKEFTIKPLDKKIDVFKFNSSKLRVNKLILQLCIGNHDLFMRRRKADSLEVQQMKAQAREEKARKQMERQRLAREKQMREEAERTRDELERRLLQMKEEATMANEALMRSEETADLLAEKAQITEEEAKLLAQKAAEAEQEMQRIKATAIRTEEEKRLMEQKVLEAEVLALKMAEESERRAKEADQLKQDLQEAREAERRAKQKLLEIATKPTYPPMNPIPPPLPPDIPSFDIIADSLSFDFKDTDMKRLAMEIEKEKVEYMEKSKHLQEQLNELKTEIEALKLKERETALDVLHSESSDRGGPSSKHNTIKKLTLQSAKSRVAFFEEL

[3] = biological target: T6, Nf2 (endogenous, primary CNC-derived osteoblasts) (mouse (endogenous in primary CNC-derived osteoblasts)) (UniProt P46662); experiment: co-IP; endogenous co-IP from lysate of primary CNC-derived osteoblasts; co-IP buffer (25 mM Tris, 150 mM NaCl, 1% NP-40, 1 mM EDTA, 5% glycerol, pH 7.4); antibody overnight at 4°C, Dynabeads, Western blot
T6 sequence: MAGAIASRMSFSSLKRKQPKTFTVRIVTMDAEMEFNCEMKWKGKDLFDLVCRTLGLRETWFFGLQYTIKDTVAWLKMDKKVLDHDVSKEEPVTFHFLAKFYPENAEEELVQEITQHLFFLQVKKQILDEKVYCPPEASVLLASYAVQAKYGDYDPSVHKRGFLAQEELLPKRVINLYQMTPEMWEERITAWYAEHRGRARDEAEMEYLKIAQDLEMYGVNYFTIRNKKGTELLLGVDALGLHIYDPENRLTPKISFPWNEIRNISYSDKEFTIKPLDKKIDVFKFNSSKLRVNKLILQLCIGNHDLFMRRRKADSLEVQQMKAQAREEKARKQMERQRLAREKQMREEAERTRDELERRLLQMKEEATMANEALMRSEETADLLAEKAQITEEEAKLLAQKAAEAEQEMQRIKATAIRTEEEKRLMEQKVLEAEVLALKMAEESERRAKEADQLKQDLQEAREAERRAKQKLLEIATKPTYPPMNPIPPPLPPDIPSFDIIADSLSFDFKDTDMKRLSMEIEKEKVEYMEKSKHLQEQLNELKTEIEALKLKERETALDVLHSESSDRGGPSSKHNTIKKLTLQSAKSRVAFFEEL

[4] = biological target: T7, Nf2-Flag (neurofibromin 2, Merlin), P46662; experiment: co-IP; HEK293T cells transfected with tagged plasmids (Flag, HA); lysate in co-IP buffer (25 mM Tris, 150 mM NaCl, 1% NP-40, 1 mM EDTA, 5% glycerol, pH 7.4); co-IP antibody or normal IgG overnight at 4°C, Dynabeads, Western blot; settings: remark: other sources report otherwise
T7 chain: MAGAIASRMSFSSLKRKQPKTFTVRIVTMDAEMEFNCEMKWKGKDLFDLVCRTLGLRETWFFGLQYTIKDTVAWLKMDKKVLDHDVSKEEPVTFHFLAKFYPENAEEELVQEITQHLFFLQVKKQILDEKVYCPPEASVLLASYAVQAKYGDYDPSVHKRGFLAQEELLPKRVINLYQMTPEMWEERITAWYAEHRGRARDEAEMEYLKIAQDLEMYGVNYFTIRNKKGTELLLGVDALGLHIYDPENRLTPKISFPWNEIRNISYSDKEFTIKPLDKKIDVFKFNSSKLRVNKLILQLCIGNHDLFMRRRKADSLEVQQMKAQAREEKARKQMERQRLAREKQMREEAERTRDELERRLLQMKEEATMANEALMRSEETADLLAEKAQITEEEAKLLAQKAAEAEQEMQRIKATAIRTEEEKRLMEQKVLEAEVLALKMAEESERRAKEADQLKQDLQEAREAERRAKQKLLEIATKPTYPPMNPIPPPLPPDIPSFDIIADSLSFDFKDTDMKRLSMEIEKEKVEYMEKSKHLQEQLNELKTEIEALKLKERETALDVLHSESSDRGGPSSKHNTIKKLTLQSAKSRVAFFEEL

“PDGFRβ (from UniProt P05622 32-1098) (receptor)” was tested, and the binding [1] was “no binding”.

For “FGFR3 (from UniProt Q61851 21-801) (receptor)”, the binding [1] was “no binding”.

“PDGFRα (from UniProt P26618 25-1089) (receptor)” was tested, and the binding [1] was “no binding”.

“FGFR1-HA (FGF receptor 1) (from UniProt P16092 22-822)” was tested, and the binding [2] was “binds”, the binding (Nf2 S10A-Flag) was “binds” and the binding [1] was “binds”. The binding (Nf2 T230A-Flag) was “binds”, the binding (Nf2 S315A-Flag) was “no binding” and the binding (Nf2 S518A-Flag) was “no binding”.

In the case of “FGFR2 (from UniProt P21803 22-821) (receptor)”, the binding [1] is reported as “no binding”.

In the case of “FGFR1 (endogenous, primary CNC-derived osteoblasts) (from UniProt P16092 22-822) (receptor)”, the binding [3] is reported as “binds”.

B1: FGFR4, Q03142 17-799 (receptor)
chain: LSLEASEEMEQEPCLAPILEQQEQVLTVALGQPVRLCCGRTERGRHWYKEGSRLASAGRVRGWRGRLEIASFLPEDAGRYLCLARGSMTVVHNLTLLMDDSLTSISNDEDPKTLSSSSSGHVYPQQAPYWTHPQRMEKKLHAVPAGNTVKFRCPAAGNPMPTIHWLKDGQAFHGENRIGGIRLRHQHWSLVMESVVPSDRGTYTCLVENSLGSIRYSYLLDVLERSPHRPILQAGLPANTTAVVGSDVELLCKVYSDAQPHIQWLKHVVINGSSFGADGFPYVQVLKTTDINSSEVEVLYLRNVSAEDAGEYTCLAGNSIGLSYQSAWLTVLPEEDLTWTTATPEARYTDIILYVSGSLVLLVLLLLAGVYHRQVIRGHYSRQPVTIQKLSRFPLARQFSLESRSSGKSSLSLVRGVRLSSSGPPLLTGLVNLDLPLDPLWEFPRDRLVLGKPLGEGCFGQVVRAEAFGMDPSRPDQTSTVAVKMLKDNASDKDLADLVSEMEVMKLIGRHKNIINLLGVCTQEGPLYVIVECAAKGNLREFLRARRPPGPDLSPDGPRSSEGPLSFPALVSCAYQVARGMQYLESRKCIHRDLAARNVLVTEDDVMKIADFGLARGVHHIDYYKKTSNGRLPVKWMAPEALFDRVYTHQSDVWSFEILLWEIFTLGGSPYPGIPVEELFSLLREGHRMERPPNCPSELYGLMRECWHAAPSQRPTFKQLVEALDKVLLAVSEEYLDLRLTFGPFSPSNGDASSTCSSSDSVFSHDPLPLEPSPFPFSDSQTT
B1 was tested, and the binding [4] was “no binding”.
